# Source: PubChem BioAssay (Tox21)
# “And” between values parts separate entries of the source, which are not always exact repeats. Equal entries are not always repeated. This list was built around the results that the source calls inconclusive (neither active nor inactive); the mix of calls is not that of the screen. Potencies of inconclusive entries are doubtful fits and often do not repeat. The source made the active and inactive calls. Unless noted, calls come from the whole dose curve; as a rule, active = well fitted curve in the direction sought with a large enough effect in the repeat runs; inconclusive = weak or mixed curves; inactive = no such curve, though single readings can be large; an effect the other way counts as inactive or inconclusive.
# Legend:
# [1] = target: Aryl hydrocarbon receptor (Homo sapiens) (UniProt P35869); assay: qHTS assay to identify small molecule that activate the aryl hydrocarbon receptor (AhR) signaling pathway (AID 743085); settings: HepG2 AhR-luc (HG2L7.5c1), luciferase, 24 h; series mostly up to 70.3 µM; note: nearly all actives have a fitted effect of over 15% in size;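 for activation: HG2L7.5c1 human HepG2 liver cells with stably integrated DRE-driven firefly reporter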
# Procedure, shortened: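 Stably transfected human liver carcinoma cells (HG2L7.5c1; 20 DRE-firefly luciferase) were incubated 5 h, dosed, and kept 24 h at 37C. Agonism was scored from increased luciferase luminescence.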
# [2] = target: Peroxisome proliferator-activated receptor gamma (Homo sapiens) (UniProt P37231); assay: qHTS assay to identify small molecule antagonists of the peroxisome proliferator-activated receptor gamma (PPARg) signaling pathway (AID 743191; calls by dose curve; note: nearly all actives have a fitted effect of over 30% in size); settings: HEK293H PPARg-UAS-bla, beta-lactamase ratio, antagonist, 17 h; ratio activity, negative = inhibition: at 62.6 µM (top of the series) unless noted
# Procedure, shortened: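 GeneBLAzer PPARg UAS-bla HEK293H cells, 5 h post-plating, exposed to compounds 17 h at 37C. LiveBLAzer B/G FRET substrate added for 1 h at room temperature; beta-lactamase reporter read by fluorescence intensity.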
# [3] = qHTS assay for small molecule agonists of the antioxidant response element (ARE) signaling pathway (AID 743202; active = well fitted activation curve with a large enough effect in the signal ratio in the repeat runs, not every such curve was filed as active; inconclusive = weak or mixed curves, or effect the other way; inactive = no such curve, though single readings can be large or run the other way; the % refers to the signal ratio); settings: HepG2 ARE-bla reporter, beta-lactamase FRET, 16 h; activation: at 73.3 µM (top of the series) unless noted
# Procedure, shortened: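 Agonist mode reporter screen: HepG2 cells with ARE-controlled beta-lactamase are incubated with test compounds for 16 h at 37 C, and beta-lactamase activity is measured as fluorescence of cleaved B/G FRET substrate.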
# [4] = qHTS assay for small molecule agonists of the antioxidant response element (ARE) signaling pathway - cell viability counter screen (AID 743203; calls by dose curve; note: nearly all actives have a fitted effect of over 55% in size); settings: ARE-bla HepG2 viability, CellTiter-Glo luminescence, 16 h; viability change, negative = cytotoxic: at 73.3 µM (top of the series)
# Procedure, shortened: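 Cells (ARE-bla HepG2, 2,000/well) receive DMSO-dissolved compounds after a 5 hrs rest. Plates incubate 16 hrs at 37C/5% CO2. CellTiter-Glo luminescence is then recorded after 30 min at room temperature.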
# [5] = qHTS assay for small molecule activators of the heat shock response signaling pathway (AID 743210; active = well fitted activation curve with a large enough effect in the signal ratio in the repeat runs, with a control signal flat, not every such curve was filed as active; inconclusive = weak or mixed curves; the % refers to the signal ratio;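 for activation: HeLa cells with beta-lactamase reporter driven by heat shock elements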); settings: HeLa HSE-bla reporter, beta-lactamase ratio, 5 h; activation: at 62.6 µM (top of the series) unless noted
# Procedure, shortened: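 Quantitative high-throughput format using an engineered HeLa line in which heat shock response elements drive beta-lactamase; after 5 h with compound, cells received a B/G FRET substrate and fluorescence was read.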
# [6] = qHTS assay to identify small molecule antagonists of the peroxisome proliferator-activated receptor gamma (PPARg) signaling pathway - cell viability counter screen (AID 743194); settings: PPARg-bla HEK293H viability, CellTiter-Glo luminescence, 17 h, co-treated with 50 nM rosiglitazone; activity change, negative = cytotoxicity: at 62.6 µM (top of the series) unless noted; note: nearly all actives have a fitted effect of over 55% in size
# Procedure, shortened: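 Cytotoxicity counter screen in PPARg-bla HEK293H cells, same wells as reporter assay. Compounds plus 50 nM rosiglitazone (final) for 17 h at 37 C, then viability read by CellTiter-Glo luminescence.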
# [7] = qHTS assay for small molecule activators of the heat shock response signaling pathway - cell viability counter screen (AID 743209); settings: HSE-bla HeLa viability, CellTiter-Glo luminescence, 5 h; activity change, negative = cytotoxicity: at 62.6 µM (top of the series) unless noted; note: nearly all actives have a fitted effect of over 50% in size
# Procedure, shortened: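 Quantitative HTS format, Tox21 10K library. HeLa cells carrying an HSE-driven beta-lactamase reporter were treated 5 h at 37 C, then assessed for viability by CellTiter-Glo luminescence.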
# [8] = qHTS assay to identify small molecule that activate the aryl hydrocarbon receptor (AhR) signaling pathway - cell viability counter screen (AID 743086); settings: HepG2-AhR-luc viability, CellTiter-Fluor, 24 h; series mostly up to 70.3 µM; note: nearly all actives have a fitted effect of over 45% in size;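 for viability change, negative = cytotoxic: HepG2 liver cells carrying the AhR DRE luciferase reporter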
# Procedure, shortened: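 HepG2-AhR-luc (HG2L7.5c1) cells, 4000/well, treated 24 h at 37 C with compound; viability measured as CellTiter-Fluor fluorescence after 30 min in the same wells as the luciferase read.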
# % is set by controls: 0 for no effect and ±100 for the full control effect; potency is the fitted concentration of half-maximal effect; tags give direction and shape of the fitted curve or compound fluorescence and quenching.
# Chain of UniProt P37231 (P37231 whole entry, looked up): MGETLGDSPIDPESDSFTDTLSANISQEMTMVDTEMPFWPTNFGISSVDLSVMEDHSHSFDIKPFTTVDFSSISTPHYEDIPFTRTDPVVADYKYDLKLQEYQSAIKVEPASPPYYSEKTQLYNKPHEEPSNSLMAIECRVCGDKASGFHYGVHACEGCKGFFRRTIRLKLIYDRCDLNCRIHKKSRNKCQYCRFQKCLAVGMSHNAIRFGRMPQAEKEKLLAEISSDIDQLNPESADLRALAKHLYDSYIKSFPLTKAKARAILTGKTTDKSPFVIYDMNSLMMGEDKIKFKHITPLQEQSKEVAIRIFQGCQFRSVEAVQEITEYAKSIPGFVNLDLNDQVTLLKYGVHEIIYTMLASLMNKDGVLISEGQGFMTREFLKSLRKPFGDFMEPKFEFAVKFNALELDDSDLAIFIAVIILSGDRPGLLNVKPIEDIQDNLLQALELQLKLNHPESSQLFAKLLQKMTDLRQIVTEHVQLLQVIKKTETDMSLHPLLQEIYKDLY
# Chain of UniProt P35869 (P35869 whole entry, looked up): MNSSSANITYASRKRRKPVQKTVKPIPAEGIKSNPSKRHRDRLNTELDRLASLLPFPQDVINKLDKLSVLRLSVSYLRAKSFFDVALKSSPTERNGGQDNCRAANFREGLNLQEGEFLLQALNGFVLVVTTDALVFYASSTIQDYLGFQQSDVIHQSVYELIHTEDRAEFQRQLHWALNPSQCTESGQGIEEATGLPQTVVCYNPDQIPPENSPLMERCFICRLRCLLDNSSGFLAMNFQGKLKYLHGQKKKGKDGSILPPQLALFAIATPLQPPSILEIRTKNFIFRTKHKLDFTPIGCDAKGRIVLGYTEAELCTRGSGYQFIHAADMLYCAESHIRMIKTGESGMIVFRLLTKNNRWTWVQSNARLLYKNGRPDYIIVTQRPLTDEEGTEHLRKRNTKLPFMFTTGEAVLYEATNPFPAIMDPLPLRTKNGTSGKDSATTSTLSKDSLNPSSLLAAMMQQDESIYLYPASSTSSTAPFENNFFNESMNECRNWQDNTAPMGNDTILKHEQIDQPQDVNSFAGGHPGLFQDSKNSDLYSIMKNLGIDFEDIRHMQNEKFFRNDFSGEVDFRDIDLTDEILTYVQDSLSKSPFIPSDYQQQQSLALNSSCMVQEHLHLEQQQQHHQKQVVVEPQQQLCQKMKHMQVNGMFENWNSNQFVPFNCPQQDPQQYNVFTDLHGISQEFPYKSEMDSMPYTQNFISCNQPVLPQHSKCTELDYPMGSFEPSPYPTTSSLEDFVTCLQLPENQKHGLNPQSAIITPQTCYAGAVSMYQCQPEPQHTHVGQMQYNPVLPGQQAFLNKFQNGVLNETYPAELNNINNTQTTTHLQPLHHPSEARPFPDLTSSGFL
smiles,measurement,setting,value
Nc1nc(-c2ccc([N+](=O)[O-])cc2)cs1,Potency,[1],"inconclusive: 34.7 µM [activator, partial curve, poor fit]"
same,Potency,[2],inactive
same,Potency,[3],"inconclusive: 6.93 µM [rising, partial curve]"
same,Potency,[4],inactive
Cn1c(=O)c2c(ncn2CCO)n(C)c1=O,Potency,[1],inactive
same,Potency,[3],inactive
O=C1c2ccccc2C(=O)C1c1nc2ccccc2c(Br)c1O,Potency,[1],active: 9.69 µM
same,Potency,[2],inactive
same,Potency,[3],active: 1.54 µM
same,Potency,[5],inactive
CC[N+](CC)(CC)CCOc1ccc(/C=C/c2ccccc2)cc1,Potency,[1],inactive
same,Potency,[3],"inconclusive: 3.76 µM [rising, full curve]"
COc1cc(OC)c2ccc(=O)oc2c1,Potency,[1],inactive
same,Potency,[2],"inconclusive: 49 µM [activator, single point]"
same,activation,[3],inconclusive: 24.8%
same,Potency,[5],inactive
Cc1c(N)c(=O)n(-c2ccccc2)n1C,Potency,[1],inactive
same,Potency,[6],inactive
same,activation,[3],inconclusive: -8%
Cc1cccc2sc(N)nc12,Potency,[1],active: 27.6 µM
same,"ratio activity, negative = inhibition",[2],inconclusive: -7.08% [at 81.1 µM]
same,activation,[3],inconclusive: 37.3% [at 94.8 µM]
same,Potency,[7],"inconclusive: 55.6 µM [rising, single point]"
Nc1c2c(nc3ccccc13)CCCC2O (stereo not given),Potency,[1],"inconclusive: 21.1 µM [activator, partial curve, poor fit]"
same,"ratio activity, negative = inhibition",[2],inconclusive: 4.79%
same,activation,[3],inconclusive: 0.336%
same,Potency,[7],inactive
same,Potency,[5],inactive
O=c1c(-c2ccc(O)cc2)coc2cc(O)ccc12,Potency,[1],"inconclusive: 24.1 µM [activator, partial curve]"
same,"ratio activity, negative = inhibition",[2],inconclusive: -43.3%
same,Potency,[3],"inconclusive: 27 µM [rising, partial curve]"
same,Potency,[4],"inconclusive: 27 µM [cytotoxic, partial curve, poor fit]"
CCNc1cc(O)ccc1C,Potency,[1],active: 30.3 µM
same,activation,[3],inconclusive: 50.5%
CC(C)(C)CC(C)(C)c1ccc(Nc2ccc(C(C)(C)CC(C)(C)C)cc2)cc1,activation,[1],inactive: -2.79% [at 8.47 µM]
same,"ratio activity, negative = inhibition",[2],inconclusive: -5.99% [at 5.95 µM]
same,"activity change, negative = cytotoxicity",[7],inactive: 7.93% [at 5.95 µM]
CC(C)NCC(O)c1ccc(O)c(O)c1 (stereo not given),Potency,[1],"inconclusive: 54.5 µM [activator, partial curve]"
same,Potency,[6],inactive
same,Potency,[3],"inconclusive: 0.306 µM [rising, full curve, poor fit]"
same,activation,[3],inconclusive: 21.6%
same,Potency,[7],inactive
O=C(O)COc1ccc2ccccc2c1,Potency,[1],"inconclusive: 61.1 µM [activator, partial curve]"
same,Potency,[6],"inconclusive: 21.9 µM [cytotoxic, single point]"
same,activation,[3],inconclusive: 4.81%
CCOC(=O)C1=C(C)NC(C)=C(C(=O)OC)C1c1cccc([N+](=O)[O-])c1 (stereo not given),Potency,[1],"inconclusive: 3.76 µM [activator, partial curve, poor fit]"
same,"ratio activity, negative = inhibition",[2],inconclusive: 11.4%
same,Potency,[4],inactive
same,Potency,[7],inactive
CN(C(=O)c1c(O)c2ccccc2n(C)c1=O)c1ccccc1,Potency,[1],"inconclusive: 33.5 µM [activator, single point]"
same,"ratio activity, negative = inhibition",[2],inconclusive: 14%
same,Potency,[7],inactive
O=C(/N=N/C(=O)OCc1ccccc1)OCc1ccccc1,Potency,[1],"inconclusive: 27.3 µM [activator, partial curve]"
same,Potency,[2],"inconclusive: 43.6 µM [inhibitor, partial curve]"
same,Potency,[3],inactive
same,Potency,[5],"inconclusive: 54.9 µM [falling, partial curve, poor fit]"
Nc1nc2ncc(CNc3ccc(C(=O)N[C@@H](CCC(=O)O)C(=O)O)cc3)nc2c(=O)[nH]1,Potency,[1],inactive
same,"ratio activity, negative = inhibition",[2],inconclusive: 16.8% and inconclusive: 17.1%
same,Potency,[3],inactive
CC(=O)OC(C)C[N+](C)(C)C (stereo not given),Potency,[1],inactive
same,Potency,[3],inactive
CO[C@@H]1[C@@H](OC)[C@H](C)[C@@](O)(CC(=O)O)O[C@H]1[C@H](C)[C@H]1O[C@@]2(CC[C@@](C)([C@H]3CC[C@@](C)([C@@H]4O[C@@H]([C@H]5O[C@](C)(O)[C@H](C)C[C@@H]5C)C[C@@H]4OC4C[C@H](OC)[C@@H](OC)[C@H](C)O4)O3)O2)C[C@H](O)[C@H]1C (stereo not given in full),Potency,[8],"inconclusive: 2.66 µM [falling, full curve]"
same,Potency,[2],"inconclusive: 11.9 µM [fluorescent, partial curve]"
same,Potency,[3],"inconclusive: 26.6 µM [rising, partial curve]"
same,Potency,[7],active: 11.9 µM
Cc1cccc(C(=O)O)c1O,Potency,[8],inactive
same,Potency,[2],"inconclusive: 7.5 µM [activator, full curve, poor fit]"
same,activation,[3],inconclusive: 19%
same,"activity change, negative = cytotoxicity",[7],inconclusive: -5.25% [cytotoxic]
same,Potency,[5],"inconclusive: 33.5 µM [activator, single point]"
